Data taken from the supplement of paper PMC9446081.
Out of some 39,000 compounds screened, about 220 (0.56%) showed activity. Some of the results follow.

The compounds below were run on Escherichia coli K-12 BW25113 (assay: relative growth (OD600 normalised to plate interquartile mean) (fraction); higher = less growth inhibition, active = 0.2 or less). Details: 50 µM; LB; incubation time: overnight (16-24 h).
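Further: static incubation at 37 °C against the wild-type strain, values averaged over two biological replicates.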

| SMILES | relative growth |
| --- | --- |
| C=CCc1ccc(O[C@@H]2O[C@H](CO[C@@H]3O[C@@H](C)[C@H](O)[C@@H](O)[C@H]3O)[C@@H](O)[C@H](O)[C@H]2O)c(O)c1 | inactive: 1.02 |
| COc1ccc(cc1)CN1C[C@]2(CCN(CC2)C(=O)Nc2cccc(c2)F)c2c([nH]c3cc(ccc23)OC)[C@H]1CO | inactive: 1.04 |
| Cc1ccc(OC(=O)N(C)C[C@H]2OCc3ccccc3-c3ccccc3C(=O)N([C@@H](C)CO)C[C@H]2C)cc1 | inactive: 1 |
| C[C@@H]1CCCCO[C@@H](CN(C)C(=O)c2ccccc2)[C@H](C)CN([C@H](C)CO)C(=O)c2cc(NC(=O)Nc3ccc(F)cc3)ccc2O1 | inactive: 1.03 |
| Nn1cc(Br)c(=O)[nH]c1=O | inactive: 1.01 |
| C[C@H]1CCCCO[C@H](CN(C)Cc2ccc(C(F)(F)F)cc2)[C@@H](C)CN([C@@H](C)CO)C(=O)c2cc(NC(=O)C3CCCCC3)ccc2O1 | inactive: 1.03 |
| C[C@@H]1CCCCO[C@H](CN(C)C(=O)Nc2ccc(F)cc2)[C@@H](C)CN([C@@H](C)CO)C(=O)c2cc(NC(=O)C3CCCCC3)ccc2O1 | inactive: 1.03 |
| C[C@@H]1CCCCO[C@H](CN(C)C(=O)Nc2ccc(F)cc2)[C@H](C)CN([C@@H](C)CO)C(=O)c2cc(NC(=O)Nc3ccc(F)cc3)ccc2O1 | inactive: 0.99 |
| Cc1ccc(S(=O)(=O)N(C)C[C@H]2Oc3ccc(NC(=O)NC(C)C)cc3C(=O)N([C@@H](C)CO)C[C@H]2C)cc1 | inactive: 0.986 |
| C[C@@H]1CN([C@@H](C)CO)C(=O)CCCn2nncc2CO[C@H]1CN(C)C(=O)CCCN(C)C | inactive: 0.975 |
| C[C@@H]1CCCCO[C@H](CN(C)C(=O)CCCN(C)C)[C@@H](C)CN([C@@H](C)CO)C(=O)c2cc(NC(=O)Nc3cccc4ccccc34)ccc2O1 | inactive: 0.986 |
| C[C@@H]1CN([C@@H](C)CO)C(=O)c2cc(-c3ccncc3)cnc2O[C@@H]1CN(C)S(=O)(=O)c1ccccc1 | inactive: 1 |
| Cc1noc(C)c1NC(=O)Nc1ccc2c(c1)CC(=O)N([C@@H](C)CO)C[C@H](C)[C@@H](CN(C)C(=O)Nc1cccc3ccccc13)O2 | inactive: 1.03 |
| C[C@@H]1CN([C@H](C)CO)C(=O)Cc2cc(NS(=O)(=O)c3ccc(F)cc3)ccc2O[C@H]1CN(C)S(=O)(=O)c1ccc(F)cc1 | inactive: 0.974 |
| Cc1ccc(S(=O)(=O)Nc2ccc3c(c2)C(=O)N([C@H](C)CO)C[C@H](C)[C@@H](CN(C)CC2CCCCC2)OCCCC[C@@H](C)O3)cc1 | inactive: 0.982 |
| N#Cc1cnc2c(C(N)=O)cnn2c1N | inactive: 0.971 |
| O=C(C[C@H]1CC[C@H](NS(=O)(=O)c2ccc(F)cc2)[C@@H](CO)O1)N1CCC(Cc2ccccc2)CC1 | inactive: 0.996 |
| COc1cccc(-c2cn(CC[C@H]3CC[C@@H](NS(=O)(=O)c4ccccc4Cl)[C@@H](CO)O3)nn2)c1 | inactive: 1 |
| C[C@@H]1CCCCO[C@H](CN(C)Cc2ccc(C(=O)O)cc2)[C@H](C)CN([C@H](C)CO)C(=O)c2cc(NC(=O)CCC(F)(F)F)ccc2O1 | inactive: 0.965 |

| SMILES | relative growth |
| --- | --- |
| CCc1nc2ccc(C(=O)NC3CCN(Cc4ccccc4)CC3)cn2c1N(C)CCN1CCOCC1 | inactive: 0.997 |
| CC(C)[C@@H]1COCc2cnnn2CCC[C@H](C)C(=O)N[C@H](C(C)C)COCc2cnnn2CCC[C@H](C)C(=O)N1 | inactive: 0.981 |
| C[C@@H]1CN([C@@H](C)CO)C(=O)Cc2cc(NC(=O)Nc3cccc4ccccc34)ccc2O[C@H]1CN(C)Cc1ccc(C(=O)O)cc1 | inactive: 0.983 |
| C[C@H](CO)N1C[C@H](C)[C@H](CN(C)S(=O)(=O)c2cccs2)Oc2ncc(-c3ccccc3)cc2C1=O | inactive: 1.01 |
| NC[C@H](c1ccccc1Cl)N1CCOCC1 | inactive: 1 |
| C[C@@H]1CN([C@H](C)CO)C(=O)c2cc(C#CC3(O)CCCC3)cnc2O[C@H]1CN(C)C(=O)Nc1ccc2c(c1)OCO2 | inactive: 0.998 |
| C[C@H]1CN([C@@H](C)CO)S(=O)(=O)c2ccc(C#CCN(C)C)cc2O[C@H]1CN(C)Cc1ccncc1 | inactive: 1.04 |
| C[C@@H]1CN([C@@H](C)CO)C(=O)c2cc(NC(=O)Nc3cccc4ccccc34)ccc2O[C@@H](C)CCCCO[C@@H]1CN(C)C(=O)C1CCCCC1 | inactive: 1.03 |
| C[C@H]1CN([C@@H](C)CO)S(=O)(=O)c2ccc(C#CC3(O)CCCC3)cc2O[C@H]1CN(C)C(=O)Nc1ccc(F)cc1 | inactive: 0.946 |
| O=C(C[C@H]1CC[C@@H]2[C@H](COC[C@@H](O)CN2S(=O)(=O)c2ccc(F)cc2)O1)N[C@H]1CCN(Cc2ccccc2)C1 | inactive: 0.999 |
| C[C@@H]1CN([C@H](C)CO)C(=O)Cc2cc(NC(=O)Nc3ccc(F)cc3)ccc2O[C@H]1CN(C)S(=O)(=O)c1cn(C)cn1 | inactive: 0.986 |
| O=C(CN1CCOCC1)N[C@H]1CC[C@H](CCNC(=O)Nc2cc(F)ccc2F)O[C@@H]1CO | inactive: 0.994 |
| C[C@@H]1CN([C@H](C)CO)C(=O)c2cc(NS(=O)(=O)c3cn(C)cn3)ccc2O[C@@H](C)CCCCO[C@@H]1CN(C)CC1CC1 | inactive: 1.04 |
| C[C@@H]1CN([C@@H](C)CO)C(=O)Cc2cc(NC(=O)CCN3CCOCC3)ccc2O[C@@H]1CN(C)C(=O)NC1CCCCC1 | inactive: 0.996 |
| Cc1ccc(S(=O)(=O)Nc2ccc3c(c2)CC(=O)N([C@@H](C)CO)C[C@@H](C)[C@H](CN(C)S(=O)(=O)c2c(C)noc2C)O3)cc1 | inactive: 0.993 |
| Cc1ccc(S(=O)(=O)N(C)C[C@@H]2Oc3ccc(NS(=O)(=O)c4ccc(F)cc4)cc3C(=O)N([C@@H](C)CO)C[C@@H]2C)cc1 | inactive: 1.03 |
| COc1ccc2c3c([nH]c2c1)[C@H](CO)N(C[C@]13CN(CC2CCCCC2)C1)C(=O)Nc1cccc(c1)F | inactive: 1.01 |
| COCC(=O)Nc1ccc2c(c1)C(=O)N(C)C[C@@H](OC)[C@@H](C)CN(Cc1cccc(F)c1)[C@H](C)CO2 | inactive: 0.995 |
| C[C@@H]1CCCCO[C@@H](CN(C)S(=O)(=O)c2ccccc2)[C@@H](C)CN([C@@H](C)CO)C(=O)c2cc(NS(=O)(=O)c3cn(C)cn3)ccc2O1 | inactive: 0.993 |
